# Data from publication PMC4336329 (PLoS ONE, 2015).
# Among all 310,000 compounds or so, about 14,000 (4.5%) showed an effect of 50% or more. Effects have a minus sign here. Some of the results follow.
# Target: human ether-à-go-go-related gene (hERG) potassium channel (human, UniProt Q12809)
# Experiment: primary screen, population patch clamp on CHO cells stably expressing hERG
# 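Note: peak tail current of the secondary pulse compared with the same well before compound.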
# human ether-à-go-go-related gene (hERG) potassium channel, sequence (Q12809 whole entry, looked up): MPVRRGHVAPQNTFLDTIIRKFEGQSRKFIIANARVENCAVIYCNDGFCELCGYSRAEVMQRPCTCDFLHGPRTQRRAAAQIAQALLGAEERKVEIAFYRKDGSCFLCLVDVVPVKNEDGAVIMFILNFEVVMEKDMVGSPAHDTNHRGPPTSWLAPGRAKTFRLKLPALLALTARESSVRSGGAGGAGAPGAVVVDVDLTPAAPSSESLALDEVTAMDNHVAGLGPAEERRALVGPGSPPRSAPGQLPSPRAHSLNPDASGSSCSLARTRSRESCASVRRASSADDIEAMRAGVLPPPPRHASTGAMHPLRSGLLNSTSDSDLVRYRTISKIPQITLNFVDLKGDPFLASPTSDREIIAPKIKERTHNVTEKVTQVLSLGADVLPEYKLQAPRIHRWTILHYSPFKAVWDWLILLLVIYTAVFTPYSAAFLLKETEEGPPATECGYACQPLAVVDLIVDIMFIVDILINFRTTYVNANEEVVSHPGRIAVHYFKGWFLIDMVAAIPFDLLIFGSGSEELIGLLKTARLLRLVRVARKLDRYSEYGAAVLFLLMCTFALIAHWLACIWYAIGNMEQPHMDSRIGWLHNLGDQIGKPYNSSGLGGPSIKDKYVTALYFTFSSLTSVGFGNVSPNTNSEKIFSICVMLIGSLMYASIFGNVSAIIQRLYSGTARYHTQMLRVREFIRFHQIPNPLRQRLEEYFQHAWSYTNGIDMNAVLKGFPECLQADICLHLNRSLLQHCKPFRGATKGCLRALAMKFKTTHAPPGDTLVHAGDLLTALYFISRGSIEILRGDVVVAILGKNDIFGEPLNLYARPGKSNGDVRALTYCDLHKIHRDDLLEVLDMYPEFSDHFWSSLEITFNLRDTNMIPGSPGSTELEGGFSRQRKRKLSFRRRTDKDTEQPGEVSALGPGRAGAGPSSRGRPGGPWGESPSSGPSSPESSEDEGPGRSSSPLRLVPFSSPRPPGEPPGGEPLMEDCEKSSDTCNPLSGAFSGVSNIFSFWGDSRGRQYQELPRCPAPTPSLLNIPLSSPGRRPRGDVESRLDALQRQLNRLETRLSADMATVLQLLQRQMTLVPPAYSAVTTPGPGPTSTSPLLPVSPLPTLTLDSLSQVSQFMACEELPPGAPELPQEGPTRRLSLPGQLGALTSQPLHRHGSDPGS
row,Compound,"hERG current change (%, negative = inhibition) at 10uM"
1,CCCCN=c1sc(C(=O)OC)cc(=O)n1CCCC,7.92%
2,O=C(CN1CCN(c2ccccc2F)CC1)Nc1ccc2c(c1)CCC2,8.18%
3,Cc1csc2nc(SCC(=O)Nc3ccccc3F)[nH]c(=O)c12,24%
4,CSc1ccccc1NC(=S)NCc1ccc(Cl)cc1,-12.3%
5,CSc1nc2ncc3c(n2n1)CC1c2ccccc2CCN1C3=O (stereo not drawn),-45.4%
6,O=C(COC(=O)/C=C/c1ccc(Cl)cc1)NCCC1=CCCCC1,-0.806%
7,COc1cc(/C=C/C(=O)O)cc(S(=O)(=O)N2CCc3ccccc3C2)c1OC,16.6%
8,O=C(C1CCN(S(=O)(=O)c2cccs2)CC1)N1CCCC(C(F)(F)F)C1 (stereo not drawn),13.8%
9,CCn1c(SCC(=O)Nc2ccccc2-c2ccccc2)nnc1-c1ccoc1C,-22.4%
10,COc1ccccc1NC(=O)NNC(=O)c1ccc(-c2ccccc2)cc1,-14.7%
11,Cc1cc(Cl)nc(NC(=O)Nc2cccc(Cl)c2)n1,3.43%
12,CCOc1cc2nc(-c3ccc(OC)c(OC)c3)nc(NCCCN3CCOCC3)c2cc1OC,2.94%
13,CC12C(=O)N(c3nccs3)C(=O)C1C1C=CC2C1 (stereo not drawn),6.82%
14,CC(C)(C)NC(=O)COC(=O)c1ccccc1Nc1ccc(SC(F)F)cc1,-12%
15,COc1cccc(N/N=C/c2cccc(Br)c2O)c1,-11.1%
16,O=C(c1cccc(NC2=NC3CS(=O)(=O)CC3S2)c1)N1CCN(c2ncccn2)CC1 (stereo not drawn),11.7%
17,C/C(Cn1nnc([N+](=O)[O-])n1)=N\NC(=O)c1ccc(O)cc1O,16.8%
18,CCSC1=C(C#N)C(c2cccc(Br)c2)CC(=O)N1 (stereo not drawn),16%
19,COc1cccc(-c2nnc(NC(=O)c3cccc(F)c3)o2)c1,28.3%
20,COc1ccc(-c2[nH]ncc2CN2CCN(c3ccc(F)cc3)CC2)cc1,-45.7%
21,CCOc1ccccc1NC(=O)c1csc(C)c1C,-25.4%
22,Cc1cc(O)c(-c2cc(C(=O)Nc3cccnc3)[nH]n2)cc1C,20.2%
23,Cc1c(C(=S)Nc2ccccc2)cnn1-c1ccc([N+](=O)[O-])cc1,-32.7%

row,Compound,"hERG current change (%, negative = inhibition) at 10uM"
1,CC(C)c1ccc(/C=N/NC(=O)c2ccccn2)cc1,-19.7%
2,CC(=O)N/C(=C/c1ccc2c(c1)OCO2)C(=O)NCCO,9.66%
3,Cl.O=C1CN=C(Nc2ccc(Cl)cc2)N1c1ccccc1,16.5%
4,O=c1c2[nH]c3ccc(F)cc3c2ncn1CCN1CCN(Cc2ccccc2)CC1,-63.2%
5,CC(C)[C@H](NC(=O)[C@@H]1CSC2c3ccccc3C(=O)N21)C(=O)NCc1ccco1 (stereo partly drawn),3.1%
6,Cc1ccc(Cl)cc1NC(=O)COC(=O)c1ccc(N2CCCC2)c([N+](=O)[O-])c1,-9.73%
7,Cc1ccc(CNS(=O)(=O)c2ccc(-c3cnc(C4CC4)o3)cc2)cc1,16.5%
8,CC1Cc2ccccc2N1Cc1nc2cc(C(F)(F)F)ccc2c(=O)[nH]1 (stereo not drawn),5.95%
9,COC(=O)c1ccc(NC(=O)CN(C)S(=O)(=O)c2ccc(OC)c(C)c2)cc1,12.9%
10,O=C(CCCc1nc(-c2ccc(Cl)cc2)no1)N1CCOCC1,-28.4%
11,COc1cccc(CC(=O)Nc2ccc(-c3csc(C)n3)cc2)c1,22%
12,CCOC(=O)C1CCN(Cc2ccccn2)CC1.O=C(O)C(=O)O,18.9%
13,Cc1ccc(N(CC(=O)NCc2ccccc2)C(=O)CCC(=O)Nc2nccs2)cc1,7.61%
14,O=C(NCc1ccco1)c1ccc(-c2ccc(Cl)cc2)o1,-2.08%
15,CCCN1CCC(=O)N(CCO)CC1,-3.79%
16,O=C(NCc1ccco1)C12CC3CC(CC(C3)C1)C2,6.18%
17,O=C(C1CCCN(Cc2ccccc2)C1)N1CCCCC1.O=C(O)C(=O)O (stereo not drawn),11.3%
18,C/C(=N\OCC(=O)NC12CC3CC(CC(C3)C1)C2)c1cc2ccccc2o1,5.38%
19,CC(c1ccco1)N(C(=O)c1ccccc1NS(=O)(=O)c1ccc(Cl)c([N+](=O)[O-])c1)c1ccccn1 (stereo not drawn),-6.14%
20,CC1=NN(c2cccc([N+](=O)[O-])c2)C(=O)C1,24.4%
21,O=C(CC(c1ccccc1)c1ccccc1)NCC(O)c1ccc([N+](=O)[O-])cc1 (stereo not drawn),-58.1%
22,COc1ccc(CCC(=O)Nc2nc3c(s2)CN(C)CC3)cc1OC,18%
23,CCOC(=O)c1sc(NC(=O)CS(=O)(=O)c2ccc(C)cc2)nc1C,3.25%

row,Compound,"hERG current change (%, negative = inhibition) at 10uM"
1,CC1CCCCC12NC(=O)N(CC(=O)Nc1ccc(N3CCOCC3)cc1)C2=O (stereo not drawn),1.78%
2,Cc1cc(C)n(CC2CC(=O)N(c3ccc(F)c(Cl)c3)C2=O)n1 (stereo not drawn),-3.94%
3,CCn1c(COc2ccccc2C)nnc1SCC(=O)OC,-9.68%
4,CCOc1ccc(C2=CC(=O)C[C@H](c3ccc(OC)cc3)C2)cc1,-6.32%
5,O=C(CCCC(=O)c1ccc(O)cc1)c1ccc(O)cc1,-0.901%
6,Cc1ccc(S(=O)(=O)N(C)C)cc1NC(=O)COC(=O)Cc1n[nH]c(=O)c2ccccc12,16.2%
7,CCOC(=O)N1CCN(C(=O)/C(=C/c2ccc(Cl)cc2)NC(=O)c2ccccc2)CC1,-74.7%
8,COc1cccc(NC2=NCCCCC2)c1,1.26%
9,COc1ccc(CCNC(=O)C2CCN(S(=O)(=O)c3ccc(SC)cc3)CC2)cc1,7.89%
10,CCOc1ccccc1NC(=O)Nn1cnnc1,11%
11,COc1ccc(-n2ccnc2CN2CCN(C3CCCC3)C(CCO)C2)cc1 (stereo not drawn),-29.1%
12,COc1cccc(C2C=C(c3ccc(OC)cc3OC)Nc3nnnn32)c1 (stereo not drawn),1.76%
13,Cc1ccc(NC(=O)CSc2nc(C)c(C)c(C)n2)c([N+](=O)[O-])c1,-3.98%
14,O=C(NCCN1CCOCC1)c1cc(S(=O)(=O)NCCCN2CCCC2=O)ccc1Cl,4.24%
15,Cc1[nH]c2ccccc2c1Cc1nnc(SCC(=O)NCc2ccco2)o1,4.19%
16,O=C(Nc1cccc(F)c1)c1ccc(S(=O)(=O)N2CCOCC2)cc1,-13.6%
17,Cc1onc(-c2ccccc2)c1C(=O)n1cc(Br)cn1,-12.1%
18,Cc1csc(NC(=O)CSc2ncn(-c3ccccc3)n2)n1,-20.3%
19,Cl.O=C(NC1CCCCC1)N1CCNCC1,19.1%
20,O=C(NCc1ccccc1)C1(C(F)(F)F)CC(CCCO)CCCO1 (stereo not drawn),-5.87%
21,CC(=O)Nc1ccc(-c2csc(NNC(=O)c3ccc(C)cc3)n2)cc1,20.6%
22,COc1ccc(OC)c(NC(=O)CSc2nnc(Cn3nnc4ccccc43)n2C)c1,-7.34%
23,COc1cc(C(=S)N2CCC(C)CC2)ccc1O,5.1%

row,Compound,"hERG current change (%, negative = inhibition) at 10uM"
1,CC(=O)c1c(C)[nH]c(C(=O)CSc2nc3ccccc3n2C)c1C,17.8%
2,O=C(O)CC12CC3CC(C1)CC(n1cncn1)(C3)C2,26.1%
3,Cc1ccc(C(C)C)c(OCCCN2CCc3ccccc3C2)c1.Cl,-70.1%
4,COC(=O)C1=C(c2ccc(Cl)c(C(F)(F)F)c2)C[C@@H]2CC[C@H]1N2C(=O)NCCOc1ccccc1Cl,16%
5,CNC(C)(C)Cc1ccccc1.O=S(=O)(O)O,13.3%
6,CCCNc1nc2ccccc2n2c(C)nnc12,-5.31%
7,COc1ccc(C(=O)Nc2nnc(C3=COCCO3)o2)cc1OC,20%
8,COC(=O)c1ccc(COc2cccc3c2CCN(Cc2ccccc2)C3=O)o1,-46.6%
9,O=S(=O)(Nc1ccc(O)c2ccccc12)c1cccs1,-13.6%
10,COc1ccc(C(=O)NCCc2c[nH]c3ccccc23)cc1OC,-0.252%
11,COc1ccc(NS(=O)(=O)c2cc(NC(=O)COc3ccccc3F)ccc2OC)cc1,-9.26%
12,CCCCn1c(N)c(N(CCC(C)C)C(=O)c2ccc(C)o2)c(=O)[nH]c1=O,16.2%
13,COCCN(C(=O)CSc1ncccn1)c1c(N)n(Cc2ccccc2)c(=O)[nH]c1=O,4.3%
14,Cc1ccc(-c2nnn(CC(=O)N(c3cccc(F)c3)C(C(=O)NC(C)(C)C)c3ccco3)n2)o1 (stereo not drawn),17.3%
15,CC(=O)Nc1ccc(NC(=O)C(C)OC(=O)c2oc3ccccc3c2C)cc1 (stereo not drawn),-19.7%
16,CCOC(=O)C1CCCCC12C(C#N)=C(N)Oc1n[nH]c(C)c12 (stereo not drawn),10.1%
17,CC(C)CC(=O)Nc1nnc(S(=O)(=O)N2c3ccccc3CC2C)s1 (stereo not drawn),13.8%
18,COc1ccc(CCC(=O)OCC(=O)c2ccc(C)cc2)cc1,-2.13%
19,O=C(Nc1nc2c(s1)CCCC2)C1CCCN1C(=O)c1cccs1 (stereo not drawn),1.61%
20,NNC(=O)c1nc(-c2ccccc2)cc(-c2ccccc2)n1,-11.7%
21,Cc1ccccc1OCC(O)Cn1c(=N)n(CCN2CCOCC2)c2ccccc21.Cl (stereo not drawn),-61.5%
